Laboratory results reported in PubChem BioAssay AID504332 (National Center for Advancing Translational Sciences (NCATS), 2011).
The whole screen tested about 350,000 compounds, of which about 31,000 (8.9%) were called active. Inconclusive means that the source gave no clear call. Such entries were picked first, then a sample of the others. Calls come from the whole dose curve; as a rule, active = well fitted inhibition curve with a large enough effect; inconclusive = small, poorly fitted or top-dose-only effect; inactive = no such curve, though single readings can be large or run the other way. A potency beside an inconclusive call is a rough fit, not a confirmed value. Some structures have more than one record in an assay (separate samples or runs), and their calls can disagree.

target: Histone-lysine N-methyltransferase EHMT2 (Homo sapiens) (UniProt Q96KQ7); assay: qHTS Assay for Inhibitors of Histone Lysine Methyltransferase G9a; conditions: G9a H3K9 monomethylation, AlphaScreen, 2 h; activity, negative = inhibition: at 59 µM (top of the series) unless noted; note: nearly all actives have a fitted effect of over 75% in size
UniProt Q96KQ7, sequence (Q96KQ7 whole entry, looked up, the tested form may be a part): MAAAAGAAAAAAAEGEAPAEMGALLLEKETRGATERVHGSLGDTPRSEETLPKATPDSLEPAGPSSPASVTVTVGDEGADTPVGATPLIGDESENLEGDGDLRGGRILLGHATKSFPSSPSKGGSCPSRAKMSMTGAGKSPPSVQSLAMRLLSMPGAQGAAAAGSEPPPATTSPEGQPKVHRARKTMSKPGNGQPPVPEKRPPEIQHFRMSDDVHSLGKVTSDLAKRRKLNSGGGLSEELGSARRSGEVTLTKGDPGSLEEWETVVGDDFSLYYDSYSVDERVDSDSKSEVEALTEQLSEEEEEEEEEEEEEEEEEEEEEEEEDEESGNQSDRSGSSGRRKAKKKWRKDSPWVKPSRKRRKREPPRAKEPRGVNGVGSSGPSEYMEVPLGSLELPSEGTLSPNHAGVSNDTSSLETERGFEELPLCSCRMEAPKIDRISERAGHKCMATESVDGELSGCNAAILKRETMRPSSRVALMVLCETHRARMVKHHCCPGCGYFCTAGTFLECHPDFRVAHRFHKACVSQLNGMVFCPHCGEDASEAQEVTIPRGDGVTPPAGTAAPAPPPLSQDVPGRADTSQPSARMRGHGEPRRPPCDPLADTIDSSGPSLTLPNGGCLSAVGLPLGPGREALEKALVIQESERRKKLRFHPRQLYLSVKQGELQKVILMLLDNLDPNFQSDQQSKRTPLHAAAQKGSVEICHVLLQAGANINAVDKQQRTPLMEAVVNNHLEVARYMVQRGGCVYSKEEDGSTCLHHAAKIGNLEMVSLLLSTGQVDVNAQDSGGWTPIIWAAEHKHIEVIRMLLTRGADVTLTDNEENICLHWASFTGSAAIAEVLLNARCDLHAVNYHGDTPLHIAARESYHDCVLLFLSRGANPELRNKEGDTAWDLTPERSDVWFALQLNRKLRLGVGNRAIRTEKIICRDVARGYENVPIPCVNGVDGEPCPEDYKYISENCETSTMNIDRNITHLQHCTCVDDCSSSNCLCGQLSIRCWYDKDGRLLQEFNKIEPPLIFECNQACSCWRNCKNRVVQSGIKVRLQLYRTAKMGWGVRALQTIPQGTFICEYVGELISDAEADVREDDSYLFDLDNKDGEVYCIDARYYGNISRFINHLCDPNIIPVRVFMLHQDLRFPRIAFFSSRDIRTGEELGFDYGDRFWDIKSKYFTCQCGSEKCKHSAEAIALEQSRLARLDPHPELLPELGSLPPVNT
Text: Methylated lysines, on the N-terminal tails of histone proteins serve as epigenetic markers to recruit factors that can then modify local chromatin structure to lead to functional consequences. G9a and other members of the SUV39 family of the SET domain-containing superfamily of histone lysine methyltransferases (HMT) have been identified to specifically methylate Lys9 of histone H3 (H3K9). G9a catalyzes the mono- and di-methylation of H3K9 in mammalian euchromatic regions, where the resulting H3K9me2 is indicative of transcriptional repression. […] The inhibition of G9a will result in transcriptional activation and work synergistically with DNA methyltransferase and histone deacetylase inhibitors, to kill cancer cells. This qHTS assay for identification of G9a inhibitors is a chemiluminescence based AlphaScreen (PerkinElmer). Methylation of biotinylated-histone peptide is measured through specific antibody-based detection, in conjunction with streptavidin-coated donor and anti-IgG antibody-coated acceptor beads. The method is particularly well suited for detection of inhibitors acting by the desired histone peptide competitive mechanism and is applicable to testing other HMTs. Although AlphaScreen has significant advantages with its utility in a variety of epigenetic target assays, the primary screening data provided in this deposition should be used with caution due to the prevalence of screening artifacts. An AlphaScreen counterscreen is highly recommended to be run against any putative actives to eliminate non specific artifacts. Alternatively, one can use other AlphaScreen assays in PubChem to filter out promiscuous hits. Quinn et al. A chemiluminescence-based method for identification of histone lysine methyltransferase inhibitors. Mol Biosyst 6(5): 782-8. 2010. PMID: 20567762 [2] Baell,Holloway. New substructure filters for removal of pan assay interference compounds (PAINS) from screening libraries and for their exclusion in bioassays. J Med Chem. 53(7):2719-40. 2010. PMID: 20131845 NIH Molecular Libraries Probe Production Network [MLPCN] NIH Chemical Genomics Center [NCGC] Structural Genomics Consortium (SGC) NIH Grant: 5U54 MH084681-02
To each well of a 1,536w plate, 2ul of HMT enzyme (final 20nM) were added, using a nanoliter dispenser. The G9a- and GLP-inhibitor BIX-01294 (CID: 25150857) are used as an intraplate control, with a 16-point titration in duplicate. A Kalypsys pin-tool transferred 23nl of library compound solution in DMSO to each well. Following a 15 min incubation of enzyme with compounds at room temperature, 1ul mixture of b-H3K9 peptide substrate (final 500nM) and SAM cofactor (final 20uM) were added. Reactions were allowed to proceed at room temperature for 2 hours. Methylated b-H3K9 peptide product was detected with 0.5 ug/mL rabbit polyclonal anti-monomethyl histone H3K9 antibody (Abcam Inc., Cambridge, MA) and 20 ug/mL each streptavidin-coated donor and anti-rabbit IgG acceptor AlphaScreen beads. Antibody and beads were added in a 1ul dispense, for a final volume of 4ul, and plates were incubated, protected from the light, for 10 min at room temperature. Microplates were then read on an EnVision multilabel plate reader using the 1,536 plate HTS AlphaScreen aperture (excitation time 80 ms, measurement time 240 ms).
% is set by controls: 0 for no effect and ±100 for the full control effect; potency is the fitted concentration of half-maximal effect; tags give direction and shape of the fitted curve.

SMILES | Potency | activity, negative = inhibition
CC(=O)N1CCc2cc(C(=O)CN3CCC(C)CC3)ccc21 | active: 17.8 µM | –
Cc1cc(C)c(NC(=O)CSCc2c(C)noc2C)c(Cl)c1 | active: 39.8 µM | –
CCN(CC)c1ccc(NC(=O)C2CCCN(S(=O)(=O)c3ccc4c(c3)oc(=O)n4C)C2)c(C)c1 (stereo unspecified) | inconclusive: 2 µM [inhibitor, full curve, poor fit] | –
Cc1cc[n+](Cc2ccc([N+](=O)[O-])cc2)cc1 | active: 44.7 µM | –
O=[N+]([O-])c1cccc(-c2n[nH]c(=S)n2Cc2ccccc2)c1 | active: 1.78 µM | –
COc1ccccc1C(=O)OCC(=O)Nc1cccc(S(=O)(=O)N2CCCC2)c1 | inconclusive: 89.1 µM [inhibitor, partial curve, poor fit] | –
NC1(C(=O)O)CCCCC1 | active: 1.89 µM | inactive: 21.7% [at 12.7 µM]
O=C(CN1CCN(c2ccccc2)CC1)N1CCc2[nH]c3ccccc3c2C1 | inconclusive: 20 µM [inhibitor, single point] | –
O=C(c1cccc(C(=O)N2CCN(Cc3ccccc3)CC2)c1)N1CCN(Cc2ccccc2)CC1 | inconclusive: 10 µM [inhibitor, partial curve] | –
COc1ccccc1-c1ncnn1-c1sc2c(c1C#N)CCCCC2 | inconclusive: 3.55 µM [inhibitor, partial curve, poor fit] | –
COCCCNC(=O)[C@H]1N2C(=O)c3ccccc3C2SC1(C)C (stereo partly specified) | inconclusive: 79.4 µM [inhibitor, single point] | –
O=S1(=O)CCC(NC(=S)SCCOc2ccccc2)C1 (stereo unspecified) | inconclusive: 79.4 µM [inhibitor, single point] | –
CCC(=O)n1nc(-c2ccco2)nc1SCc1ccccc1 | inconclusive: 3.16 µM [inhibitor, partial curve, poor fit] | –
COc1cc(OC)cc(C(=O)OCCCOC(=O)c2cc(OC)cc(OC)c2)c1 | inactive | –
Cc1ccc(CNC(=O)CCN2C(=O)C(C)Oc3ccc(C)cc32)cc1 (stereo unspecified) | inactive | –
CC1CC(=O)N(c2ccc(N(C)Cc3ccccc3)c([N+](=O)[O-])c2)C1=O (stereo unspecified) | inactive | –
CCOC(=O)c1ccccc1NC(=O)Cc1sc(-c2cccnc2)nc1-c1ccc(C)cc1 | inconclusive: 11.2 µM [inhibitor, single point] | –
Cc1c(Cl)cccc1NC(=O)CCS(=O)(=O)c1cccc2nsnc12 | inactive | –
CN(CCOc1ccc(Cl)cc1)C(=O)CN1C(=O)NC2(CCCC2)C1=O | inconclusive: 11.2 µM [inhibitor, partial curve, poor fit] | –
Cc1cc(/C=C2\NC(=O)N(Cc3ccc(Cl)cc3)C2=O)c(C)n1C | active: 15.8 µM | –
CC(C)CCN(C(=O)c1cn2ccccc2n1)c1c(N)n(Cc2ccccc2)c(=O)[nH]c1=O | inconclusive: 89.1 µM [inhibitor, partial curve, poor fit] | –
O=C(Oc1ccccc1)N1CCC[C@@]2(CCN(c3ncccn3)C2)C1 | – | inactive: -5.7% [at 12.7 µM]
CC1(C)Cc2ccccc2C(C(Cc2ccccc2)C(N)=O)=N1 (stereo unspecified) | inactive | –

SMILES | Potency | activity, negative = inhibition
COc1ccc(C(CNC(=O)c2ccc3c(c2)C(=O)N(CCC(C)C)C3=O)N2CCOCC2)cc1 (stereo unspecified) | inconclusive: 50.1 µM [inhibitor, partial curve] | –
COc1ccc(NC(=O)c2ccc(-n3cccn3)nc2)cc1 | inactive | –
CN1CCN(CC(=O)N2CCn3c4c(c5cc(C6CCCCC6)ccc53)CCCC42)CC1 (stereo unspecified) | inconclusive: 1.58 µM [inhibitor, single point] | –
O=C(Nc1nccs1)C1CCN(S(=O)(=O)c2ccc3c(c2)OCCCO3)CC1 | inconclusive: 79.4 µM [inhibitor, partial curve, poor fit] | –
COc1ccccc1CNC(=O)CSc1ncc(C(=O)Nc2ccccc2)c(=O)n1C | inactive | –
O=C(Nc1cccc(F)c1)[C@@H]1CCCN1 | inconclusive: 89.1 µM [inhibitor, single point] | –
O=C(Nc1ccccc1)C1=C[C@H](c2ccc3c(c2)OCO3)C[C@H](OCc2ccc(CO)cc2)O1 | – | inconclusive: -55.1% [inhibitor]
Cn1c(N)c(S(=O)(=O)NCc2ccc(Cl)cc2)c(=O)n(C)c1=O | inconclusive: 39.8 µM [inhibitor, partial curve, poor fit] | –
CC1(C)Cc2c(sc3nc(-c4ccccc4)oc(=O)c23)CO1 | inconclusive: 70.8 µM [inhibitor, single point] | –
Cc1ccc(-c2nc3ncccc3o2)cc1NC(=S)NC(=O)c1ccco1 | inconclusive: 50.1 µM [inhibitor, partial curve, poor fit] | –
O=C(CC12CC3CC(CC(C3)C1)C2)N/N=C/c1ccncc1 | inactive | –
Cc1nn(CC(=O)c2ccc(Cl)s2)c(C)c1[N+](=O)[O-] | inconclusive: 50.1 µM [inhibitor, partial curve, poor fit] | –
Cc1[nH]c(=O)[nH]c(=O)c1S(=O)(=O)N(C)Cc1ccccc1 | inconclusive: 89.1 µM [inhibitor, single point] | –
Cc1ccc(S(=O)(=O)/N=C2/NC(=O)/C(=C\c3ccco3)S2)cc1 | active: 39.8 µM | –
COC1(C(F)(F)F)NC(=O)N(c2ccc(F)cc2)C1=O (stereo unspecified) | inactive | –
COC(=O)C1=CN(c2ccc(OC)cc2)C=C(C(=O)OC)C1c1ccc(C)c([N+](=O)[O-])c1 | inactive | –
Clc1ccc2c(NCc3ccccc3)ccnc2c1 | inconclusive: 89.1 µM [inhibitor, single point] | –
Cc1ccnc(NC(=O)c2ccc(NS(=O)(=O)/C=C/c3ccccc3)cc2)c1 | inconclusive: 89.1 µM [inhibitor, partial curve, poor fit] | –
COCCNc1nc2nonc2nc1N1C[C@H]2CC[C@H]1C2 | active: 79.4 µM | –
CCN1CCN(CC(=O)Nc2cc(C)c(C)cc2[N+](=O)[O-])CC1 | inconclusive: 89.1 µM [inhibitor, single point] | –
COc1cccc(CCNC(=O)c2cnc3sc(N4CCCC4)nn3c2=O)c1 | inactive | –
CN(Cc1cccs1)c1ncnc2sccc12 | inconclusive: 50.1 µM [inhibitor, partial curve, poor fit] | –
